# Measured values reported in the supplement of paper PMC8728848.
# Some of the results follow.
# Key:
# Assay in all cases: glycan array binding signal (z-score within array); higher = stronger binding
# Settings in all cases: glycan notation: IUPAC condensed, linker removed
# [1] = molecular target: Man(a1-2)Man(a1-3)[Man(a1-2)Man(a1-6)]Man
# Method in brief: (§1)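 The binding signal is a Z-score computed within each array. Data were drawn from 3228 arrays in the Consortium for Functional Glycomics database, restricted to those with a known protein sequence. Scores were averaged over arrays of the same protein sequence at different concentrations or buffers, and over linkers, and negative values can be taken as non-binding.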
# [2] = molecular target: Man(a1-2)Man(a1-3)[Man(a1-2)Man(a1-6)]Man(a1-6)[Man(a1-2)Man(a1-2)Man(a1-3)]Man
# Method in brief: as §1
# [3] = molecular target: Man(a1-2)Man(a1-3)[Man(a1-2)Man(a1-6)]Man(a1-6)[Man(a1-2)Man(a1-2)Man(a1-3)]Man(b1-4)GlcNAc(b1-4)GlcNAc
# Method in brief: as §1
# [4] = molecular target: Man(a1-2)Man(a1-3)[Man(a1-6)]Man(a1-6)[Man(a1-2)Man(a1-3)]Man(b1-4)GlcNAc(b1-4)GlcNAc
# Method in brief: as §1
# [5] = molecular target: Man(a1-2)Man(a1-6)[Man(a1-3)]Man(a1-6)[Man(a1-2)Man(a1-2)Man(a1-3)]Man
# Method in brief: as §1
# [6] = molecular target: Man(a1-2)Man(a1-6)[Man(a1-3)]Man(a1-6)[Man(a1-2)Man(a1-2)Man(a1-3)]Man(b1-4)GlcNAc(b1-4)GlcNAc
# Method in brief: as §1
# [7] = molecular target: Man(a1-3)[Man(a1-6)]Man
# Method in brief: as §1
# [8] = molecular target: Man(a1-3)[Man(a1-6)]Man(a1-6)[Man(a1-2)Man(a1-3)]Man(b1-4)GlcNAc(b1-4)GlcNAc
# Method in brief: as §1
# [9] = molecular target: Man(a1-3)[Man(a1-6)]Man(a1-6)[Man(a1-3)]Man
# Method in brief: as §1
# [10] = molecular target: Man(a1-3)[Man(a1-6)]Man(a1-6)[Man(a1-3)]Man(b1-4)GlcNAc(b1-4)GlcNAc
# Method in brief: as §1
# [11] = molecular target: Man(a1-3)[Man(a1-6)]Man(b1-4)GlcNAc(b1-4)GlcNAc
# Method in brief: as §1
# [12] = molecular target: Man(a1-3)[Man(a1-6)]Man(b1-4)GlcNAc(b1-4)[Fuc(a1-6)]GlcNAc
# Method in brief: as §1
# [13] = molecular target: Man(a1-6)Man
# Method in brief: as §1
# [14] = molecular target: Man(b1-4)GlcNAc
# Method in brief: as §1
# [15] = molecular target: MurNAc(b1-4)GlcNAc
# Method in brief: as §1
# [16] = molecular target: Neu5Ac(a2-3)Gal
# Method in brief: as §1
# [17] = molecular target: Neu5Ac(a2-3)Gal(b1-3)GalNAc
# Method in brief: as §1
# [18] = molecular target: Neu5Ac(a2-3)Gal(b1-3)GalNAc(b1-3)Gal(a1-4)Gal(b1-4)Glc
# Method in brief: as §1
# [19] = molecular target: Neu5Ac(a2-3)Gal(b1-3)GalNAc(b1-4)[Neu5Ac(a2-3)]Gal(b1-4)Glc
# Method in brief: as §1
# [20] = molecular target: Neu5Ac(a2-3)Gal(b1-3)GalNAc(b1-4)[Neu5Ac(a2-8)Neu5Ac(a2-3)]Gal(b1-4)Glc
# Method in brief: as §1
# [21] = molecular target: Neu5Ac(a2-3)Gal(b1-3)GalNAc6S
# Method in brief: as §1
# [22] = molecular target: Neu5Ac(a2-3)Gal(b1-3)GlcNAc
# Method in brief: as §1
# [23] = molecular target: Neu5Ac(a2-3)Gal(b1-3)GlcNAc(b1-2)Man
# Method in brief: as §1
# [24] = molecular target: Neu5Ac(a2-3)Gal(b1-3)GlcNAc(b1-2)Man(a1-3)[GlcNAc(b1-4)][Neu5Ac(a2-3)Gal(b1-3)GlcNAc(b1-2)Man(a1-6)]Man(b1-4)GlcNAc(b1-4)GlcNAc
# Method in brief: as §1
# [25] = molecular target: Neu5Ac(a2-3)Gal(b1-3)GlcNAc(b1-2)Man(a1-3)[Neu5Ac(a2-3)Gal(b1-3)GlcNAc(b1-2)Man(a1-6)]Man(b1-4)GlcNAc(b1-4)GlcNAc
# Method in brief: as §1
# [26] = molecular target: Neu5Ac(a2-3)Gal(b1-3)GlcNAc(b1-2)[Neu5Ac(a2-3)Gal(b1-3)GlcNAc(b1-4)]Man(a1-6)[Neu5Ac(a2-3)Gal(b1-3)GlcNAc(b1-2)Man(a1-3)]Man(b1-4)GlcNAc(b1-4)GlcNAc
# Method in brief: as §1
# [27] = molecular target: Neu5Ac(a2-3)Gal(b1-3)GlcNAc(b1-3)Gal(b1-3)GlcNAc
# Method in brief: as §1
# [28] = molecular target: Neu5Ac(a2-3)Gal(b1-3)GlcNAc(b1-3)Gal(b1-4)GlcNAc
# Method in brief: as §1
# [29] = molecular target: Neu5Ac(a2-3)Gal(b1-3)GlcNAc(b1-3)GalNAc
# Method in brief: as §1
# [30] = molecular target: Neu5Ac(a2-3)Gal(b1-3)GlcNAc(b1-4)Gal(b1-4)Glc
# Method in brief: as §1
# [31] = molecular target: Neu5Ac(a2-3)Gal(b1-3)GlcNAc(b1-6)GalNAc
# Method in brief: as §1
# [32] = molecular target: Neu5Ac(a2-3)Gal(b1-3)GlcNAc6S
# Method in brief: as §1
# [33] = molecular target: Neu5Ac(a2-3)Gal(b1-3)[Fuc(a1-4)]GlcNAc
# Method in brief: as §1
# [34] = molecular target: Neu5Ac(a2-3)Gal(b1-3)[Fuc(a1-4)]GlcNAc(b1-3)Gal(b1-3)[Fuc(a1-4)]GlcNAc
# Method in brief: as §1
# [35] = molecular target: Neu5Ac(a2-3)Gal(b1-3)[Fuc(a1-4)]GlcNAc(b1-3)Gal(b1-4)[Fuc(a1-3)]GlcNAc
# Method in brief: as §1
# [36] = molecular target: Neu5Ac(a2-3)Gal(b1-3)[GlcNAc(b1-6)]GalNAc
# Method in brief: as §1
# [37] = molecular target: Neu5Ac(a2-3)Gal(b1-3)[Neu5Ac(a2-6)]GalNAc
# Method in brief: as §1
# [38] = molecular target: Neu5Ac(a2-3)Gal(b1-3)[Neu5Ac(a2-6)]GlcNAc(b1-3)[Fuc(a1-3)[Gal(b1-4)]GlcNAc(b1-6)]Gal(b1-4)Glc
# Method in brief: as §1
binder,measurement,setting,value
AFCNVH (Aspergillus fumigatus) (protein) MSLRGFHTTCDTIVLKDKHILSSRCKRPDGTYSFSEIDLNDCLGNNNGKFVWGGESFVDSASQVNLALEGGEGRPMLHAQLNDWHGSVQSASVNLGECIQNEAGGLEYMHC,glycan array binding signal (z-score),[1],-0.474
same,glycan array binding signal (z-score),[2],-0.214
same,glycan array binding signal (z-score),[3],-0.336
same,glycan array binding signal (z-score),[4],-0.503
same,glycan array binding signal (z-score),[5],-0.295
same,glycan array binding signal (z-score),[6],-0.329
same,glycan array binding signal (z-score),[7],-0.297
same,glycan array binding signal (z-score),[8],-0.136
same,glycan array binding signal (z-score),[9],-0.135
same,glycan array binding signal (z-score),[10],-0.432
same,glycan array binding signal (z-score),[11],-0.448
same,glycan array binding signal (z-score),[12],-0.514
same,glycan array binding signal (z-score),[13],-0.497
same,glycan array binding signal (z-score),[14],-0.3
same,glycan array binding signal (z-score),[15],2.02
same,glycan array binding signal (z-score),[16],-0.51
same,glycan array binding signal (z-score),[17],-0.39
same,glycan array binding signal (z-score),[18],-0.249
same,glycan array binding signal (z-score),[19],-0.416
same,glycan array binding signal (z-score),[20],-0.476
same,glycan array binding signal (z-score),[21],-0.435
same,glycan array binding signal (z-score),[22],-0.322
same,glycan array binding signal (z-score),[23],-0.278
same,glycan array binding signal (z-score),[24],-0.462
same,glycan array binding signal (z-score),[25],-0.377
same,glycan array binding signal (z-score),[26],-0.439
same,glycan array binding signal (z-score),[27],-0.367
same,glycan array binding signal (z-score),[28],0.251
same,glycan array binding signal (z-score),[29],-0.385
same,glycan array binding signal (z-score),[30],-0.53
same,glycan array binding signal (z-score),[31],-0.367
same,glycan array binding signal (z-score),[32],-0.204
same,glycan array binding signal (z-score),[33],-0.018
same,glycan array binding signal (z-score),[34],-0.201
same,glycan array binding signal (z-score),[35],-0.305
same,glycan array binding signal (z-score),[36],-1.85
same,glycan array binding signal (z-score),[37],-0.331
same,glycan array binding signal (z-score),[38],-0.416
